Consider 56 sequences from the supplement of paper PMC11417369.

± gives the standard deviation of the averaged measurements. The list shows a part of the results.

The assay relates to PfAP2-G AP2 domain (GST-tagged). Put plainly: gcPBM binding intensity (ln(normalized median fluorescence intensity)); higher = stronger DNA binding. The procedure, abridged:
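Binding intensity values are the highest Masliner-normalised natural-log median intensity among replicate spots of either probe orientation. The binding step lasted 1 h in 1× PBS with 1% milk, 0.2 mg/ml BSA, 0.5% salmon testes DNA and 0.03% Triton X-100, using GST-tagged P. falciparum DNA-binding domains expressed in E. coli on an Agilent 4 × 180k array of primer-extended double-stranded 36-bp intergenic genomic probes plus negative controls. Alexa488 anti-GST antibody and a 488 nm scan detected bound protein.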
For the sequence “ATATAATATGTTGAATGTACTTAAAAAAATGTATCT [XGTACX_site5385]”, the “gcPBM binding intensity (ln)” value worked out at 11.3 ± 0.77. In the case of “AAAAAAAAAAAAAAAACACACATGTATACTAGAATA [CACACA_site7108]”, the “gcPBM binding intensity (ln)” value turned out to be 10.2 ± 0.17.

On to “TTAAGTTACAATTCTCGTACACATTAAAAGAAAATT [XGTACX_site699]”, for which the “gcPBM binding intensity (ln)” value was 11.3 ± 0.99.

For the sequence “TAAATATAACAGAATAATATGTGGATTAATAAATGA [CACACA_negctrl_site438]”, the “gcPBM binding intensity (ln)” value stood at 9.82 ± 0.099. In the case of “CGCTTTATTTATATATGTACATATATATATATATAC [XGTACX_site5012]”, the “gcPBM binding intensity (ln)” value stood at 11.3 ± 0.58. For “AAATTTTTTTTTTAATTTTTTATTTAAAAAAAATAT [TGCATGCA_negctrl_site174]” the value was 9.585 ± 0.007; for “GTTATAAATAAATATACACACATATATAAAATACAT [CACACA_site7146]”, 10 ± 0.13; for “TATAACATAAAACACACACACATACATACACAAAAA [CACACA_site1804]”, 10.2 ± 0.27. With “GTTATACACATTACATGTACAAAAGTTGCACTTCAT [XGTACX_site6023]”, the “gcPBM binding intensity (ln)” value is 10.9 ± 0.45. In the case of “GTTGCCATCATTTGGCGTACAGTCAAAACCAAATCT [XGTACX_site1398]”, the “gcPBM binding intensity (ln)” value worked out at 11.6 ± 0.96. Consider “AAGGCAAACAGACACACACACATATATACCTATATA [CACACA_site7077]”, for which the “gcPBM binding intensity (ln)” value was found to be 10.2 ± 0.22. For “TCTATTAAAACAAATTGTACTTATTGATAAAGAATA [XGTACX_site3645]” the value was 11.2 ± 0.81.

On to “ATTTTTATTTTATATACACACAATAATAATATAATA [CACACA_site4015]”, for which the “gcPBM binding intensity (ln)” value came to 10.1 ± 0.37.

As to “TTTGTTCAATTTACATGTACAGATATAATCTAACAT [XGTACX_site370]”, the “gcPBM binding intensity (ln)” value stood at 11.1 ± 0.83. For “AAGAGCAACCAAATAGAAAAAGGAAAATAAAAGGAA [CACACA_negctrl_site100]” the value was 9.76 ± 0.028.

As to “AACCTATCTATAGGAACAATATATATATATATAATT [CACACA_negctrl_site1707]”, the “gcPBM binding intensity (ln)” value amounted to 9.755 ± 0.035.

Take “TATTATGCTATTTAATGTACGGAATTTATATATATA [XGTACX_site564]”: the “gcPBM binding intensity (ln)” value was found to be 10.9 ± 0.61.

“TTGCTCATTGAAATTATACACACCAAATATATAAAT [CACACA_site2482]”: the “gcPBM binding intensity (ln)” value is 9.99 ± 0.085. As for “ATATGTTTTAAGTGTACACATATAATGTATTTTGTT [CACACA_site4929]”, the “gcPBM binding intensity (ln)” value is 11.6 ± 0.9. For “AAAAGGGAAAAAATTAAAATTATATATATATATATG [CACACA_negctrl_site137]” the value was 9.54 ± 0.11; for “TACATATATTTAAGGAGTACAAAAAATAATGATAAA [XGTACX_site3539]”, 11.4 ± 0.95.

“AAAATATATAAACGCACATATATTTATGTATATATA [CACACA_negctrl_site163]”: the “gcPBM binding intensity (ln)” value is 9.98 ± 0.057. Consider “TAAAAAAAAACATGATGTACATAAAATTTTTTACTT [XGTACX_site7056]”, for which the “gcPBM binding intensity (ln)” value was found to be 11.3 ± 0.8. “AATATATAAACATATACACACAAAAACATATATATA [CACACA_site4855]”: the “gcPBM binding intensity (ln)” value turned out to be 9.95 ± 0.085.

As to “CAACAACAAATGAGAAGTACATAAATATTAACAATA [XGTACX_site4625]”, the “gcPBM binding intensity (ln)” value came out at 11.3 ± 0.71. As for “TTATAATACCTACAAAGTACAAACTTAAATATGAAC [XGTACX_site5684]”, the “gcPBM binding intensity (ln)” value came out at 11 ± 0.76.

Take “TTGCTTTTCATTTATTGTACATACCCAGTAGGATAA [XGTACX_site3939]”: the “gcPBM binding intensity (ln)” value came out at 11.1 ± 0.6. Next, “GACATAGTATTAAGTTGTACATATATAAAAATAAAT [XGTACX_site1583]”: 11.3 ± 0.81. On to “ATGTTTTCAAAAATAAAACATATAAATAAATAAATA [TGCATGCA_negctrl_site226]”, for which the “gcPBM binding intensity (ln)” value is 9.83 ± 0.21. Next, “AATGTACACGCACCCACACACAAACAAATATAAATA [CACACA_site7319]”: 11.4 ± 1; “TTACGAATGAATATATGTACATATATATATATATAT [XGTACX_site3790]”: 11.4 ± 0.61. For “GTGAAGTTCAAAATATGTACTTATGTATGTATTTTT [XGTACX_site165]” the value was 11.2 ± 0.86. Turning to “TTATGTTTCATAAAAAATTAATCAAACATATATAAG [CACACA_negctrl_site666]”, the “gcPBM binding intensity (ln)” value amounted to 9.635 ± 0.021. Next, “TTATGGATGGACAATAATAAAATTTTTACTTTTATT [CACACA_negctrl_site908]”: 10.4 ± 0.24; “AAAAAAAAGAATTAGGCACACAATTTTAATATAGGA [CACACA_site1522]”: 10.04 ± 0.042; “GCATACATCAAGCACACACACACACGCACACGCACA [CACACA_site6311]”: 10.3 ± 0.32. For “ACTACGAATGGTAGAGTGCAGTCTGGAGAAGAGTAC [GTGCAC_site9685]” the value was 10.8 ± 0.51; for “AAAAAAAAAATTATATATATATCCCTTATTTTTTCT [TGCATGCA_negctrl_site151]”, 9.62 ± 0.014; for “CATACACAGAAACACACACACATATATACATATATA [CACACA_site1094]”, 10 ± 0.24. Next, “TCATATATATTGAAATGTACTTATTTTTTCCTCATA [XGTACX_site6526]”: 11.3 ± 0.76; “CCTTAAATAATATATTCACACAATATAACAAAAATT [CACACA_site4892]”: 9.94 ± 0.085. For the sequence “TGGTATATAAAACACACACACATATGTATATATATA [CACACA_site926]”, the “gcPBM binding intensity (ln)” value is 10.1 ± 0.28. For “TATACATAGAAACACACACACATAAATAAATATATA [CACACA_site1342]”, the “gcPBM binding intensity (ln)” value came to 10 ± 0.11. As to “AAATTACTGTAAAAAAGTACAGAAGTTCTTATTTTT [XGTACX_site7416]”, the “gcPBM binding intensity (ln)” value amounted to 11.5 ± 0.93. Next, “GTTCATATAATAAAATGTACATAATATATTATATAT [XGTACX_site7623]”: 11 ± 0.56. As to “AGTTTAATTTTGTATACACACATTTGAATTATTAAT [CACACA_site7625]”, the “gcPBM binding intensity (ln)” value was 10.15 ± 0.035. For “AACAAATATGATTTTTTATATATTTTTAAATTTGGT [GTGCAC_negctrl_site189]” the value was 9.55 ± 0.23; for “TATATCTATTTCAAATGTACTTATATGATTCTTATA [XGTACX_site6277]”, 11.1 ± 0.71; for “AGCTACAAAAATTAATATATATATGTATAGTTATAC [TGCATGCA_negctrl_site531]”, 9.69 ± 0.13. For “CTTAATATGGATATTGCATGTAGAACATGAACAATA [TGCATGCA_site760]”, the “gcPBM binding intensity (ln)” value was found to be 10.04 ± 0.049. As for “TAAATATTATATTTATGTACATAAGTTTTTTTTAAT [XGTACX_site3559]”, the “gcPBM binding intensity (ln)” value was 11.2 ± 0.54. Next, “TTATGCTCAAAGAAAAGTACATAAATAAAAGTATAT [XGTACX_site7365]”: 11.4 ± 0.86; “TTAACAAATAAATGCACACATATATATAAATAATAT [CACACA_site28]”: 9.97 ± 0.17. For the sequence “GTATTATATTTTAATACACACCCAAATATTAAAAAG [CACACA_site8968]”, the “gcPBM binding intensity (ln)” value was 10.3 ± 0.13. For “TGCCATCATATCATAGGTACACAAACATATAAAGAA [XGTACX_site4137]”, the “gcPBM binding intensity (ln)” value worked out at 11.2 ± 0.73. With “AAATGTTCAGAAACTATTATAAAAATGGAATAATAT [CACACA_negctrl_site1544]”, the “gcPBM binding intensity (ln)” value was determined as 10 ± 0.12.
